# PubChem BioAssay AID1508624 (National Center for Advancing Translational Sciences (NCATS), 2021)
# About 120 (0.25%) of roughly 48,000 compounds were called active. About 4% were inconclusive and are not listed. The call rests on the fitted dose curve; in most records, active means well fitted activation curve with a large enough effect; inconclusive means small, poorly fitted or top-dose-only effect, or another doubt; inactive means no such curve, though single readings can be large or run the other way. The list shows a part of the results.
# Assay: Primary qHTS for Identification of Small Molecule Activators of Huntingtin-Antisense Promoter Activity; further: nearly all actives have a fitted effect of over 55% in size
# Settings: HEK293 HTT-AS promoter firefly luciferase reporter, 24 h; series mostly up to 57.5 µM; activity change, positive = activation: at the top concentration
# Procedure, shortened: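 HEK293 cells carrying firefly luciferase reporters were seeded at 2,500 per well in Opti-MEM and cultured for 24 h. They were then treated with compounds at up to 57.5 uM final for 24 h at 37 degrees C before Dual-Glo luminescence readout.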
row,SMILES,"activity change, positive = activation"
1,COCCCNC(=O)c1ccc2c(c1)N(Cc1ccccc1F)C(=O)c1ccccc1S2=O (configuration not stated),inactive: -21.8%
2,COc1ccc(-c2nnc(SCC(=O)Nc3ccc(C)c(C)c3)s2)cc1,"inactive: 17.9% [at 11.5 µM, percent change from vehicle, -100% = no light]"
3,CCOc1ccc(N2C(=O)c3[nH]nc(-c4ccc(OC)cc4)c3C2c2cccs2)cc1 (configuration not stated),inactive: -34.3%
4,COc1ccc(C(=O)Nc2ccc3c(c2)CCCN3S(=O)(=O)c2ccc(C)cc2)c(OC)c1,inactive: 9.2%
5,CCc1ccc(S(=O)(=O)c2cn(C)c3cc(N4CCCC4)c(F)cc3c2=O)cc1,inactive: -10.6%
6,O=C(NCc1ccco1)c1ccc2c(c1)N(Cc1ccc(Cl)cc1)C(=O)c1ccccc1S2(=O)=O,inactive: -32.7%
7,COC(=O)c1nnn(-c2ccc(Br)cc2)c1C(=O)OC,inactive: -5.64%
8,Cc1cc(C)cc(C(=O)NCC(c2ccc(N(C)C)cc2)N2CCCC2)c1 (configuration not stated),inactive: -10.5%
9,CN(Cc1ccccc1)c1ccc(-c2nc(-c3ccncc3)no2)cc1[N+](=O)[O-],inactive: -13.1%
10,CCOC(=O)CC(NC(=O)CCc1c(C)nc2ncnn2c1C)c1ccc(C)cc1 (configuration not stated),inactive: -3.83%
11,Cc1cn2c(=O)c(S(=O)(=O)Nc3ccc(F)cc3F)c(C)nc2s1,inactive: -14%
12,COc1cccc(NC(=O)C2CCCN(S(=O)(=O)c3cccc4nonc34)C2)c1 (configuration not stated),inactive: -11.8%
13,O=C(NCCC1=CCCCC1)C1CCN(C(=O)N2CCOc3ccc(Cl)cc32)CC1,inactive: -16.7%
14,O=C(c1cnn(-c2ccc(F)cc2)c1-n1cccc1)N1CCN(c2ccc(Cl)cc2)CC1,inactive: -13.3%
15,COc1ccccc1NC(=O)Cn1c(=O)c(CNc2ccccc2)cc2cc(OC)c(OC)cc21,inactive: -1.22%
16,Fc1ccc(-n2ncc3c(Nc4cccc(Cl)c4)ncnc32)cc1,inactive: 13.1%
17,Cc1cccc(CNC(=O)c2ccc3c(c2)c(C)c(C)n3Cc2ccccc2)c1,inactive: -27.6%
18,COc1ccccc1C1C=C(c2ccc(C(C)C)cc2)Nc2nnnn21 (configuration not stated),"inactive: -19.5% [at 11.5 µM, percent change from vehicle, -100% = no light]"
19,CSc1ncc(Cl)c(C(=O)N(Cc2ccc(C)cc2)C2CCS(=O)(=O)C2)n1 (configuration not stated),inactive: 12.7%
20,Cc1cc(C)cc(OCc2cc(=O)n3c(-c4ccccc4)csc3n2)c1,inactive: -0.925%
21,COc1cc(OC)cc(-c2nc3nc(C)c(CCC(=O)Nc4ccc(C)cc4C)c(C)n3n2)c1,inactive: -19.6%
22,O=S(=O)(c1ccccc1)c1nnn2c1nc(NCc1ccc(Cl)cc1)c1sccc12,inactive: -1.09%
23,CCN(CC)S(=O)(=O)c1ccc(C(=O)Nc2nc3ccc(Cl)cc3s2)cc1,inactive: -11.7%
24,O=C1CCc2cc(S(=O)(=O)NCc3ccccc3Cl)cc3c2N1CC3,inactive: 9.46%

row,SMILES,"activity change, positive = activation"
1,COc1cccc(NC(=O)Cn2cc(S(=O)(=O)Cc3ccccc3F)c3ccccc32)c1,inactive: -26.6%
2,CCOC(=O)N1CCN(Cc2nc3cc(NC(=O)c4cccc(C)c4)ccc3n2C(C)C)CC1,inactive: -24.3%
3,O=C(CCn1ccc2cc(S(=O)(=O)N3CCCC3)ccc21)NCc1ccccc1F,inactive: -10%
4,Cc1ccc(S(=O)(=O)c2nnn3c2nc(NCc2cccs2)c2sccc23)cc1,inactive: -27.3%
5,CCn1nc(C)c2c(-c3ccccc3)cc(=O)n(C(C)C(=O)NCc3ccccc3OC)c21 (configuration not stated),inactive: -23.3%
6,COc1cccc(NC(=O)c2oc3ccccc3c2NC(=O)C2CCCCC2)c1,inactive: 8.3%
7,COc1cc(Nc2nc(SCc3ccccc3Cl)nc3ccccc23)cc(OC)c1,inactive: -34.2%
8,CCc1ccccc1NC(=O)CCCN1C(=O)CCn2nc(-c3cn(C)c4ccccc34)cc21,inactive: -2.43%
9,COc1ccc(C(=O)/C=C/c2cn(CC(O)CN3CCc4ccccc43)c3ccccc23)cc1 (configuration not stated),inactive: -30.2%
10,CCOCc1cc(CN2CCN(c3ccccc3OC)CC2)c(O)c2ncccc12,inactive: -35.9%
11,CCOc1ccc(NC(=O)CSc2oc(-c3ccccc3)nc2S(=O)(=O)c2ccc(Cl)cc2)cc1,inactive: -7.39%
12,COC(=O)c1cc(NC(=O)c2cc3sccc3n2Cc2ccc(Cl)cc2)cc(C(=O)OC)c1,inactive: -19.1%
13,O=C1NC(NS(=O)(=O)c2ccccc2)(C(F)(F)F)C(=O)N1c1ccc(F)cc1 (configuration not stated),inactive: -3.35%
14,Cc1cc(N2CCC(C(=O)N(CC(C)C)CC(C)C)CC2)n2nc(C)c(-c3ccc(Cl)cc3)c2n1,inactive: -1.7%
15,CCc1ccc(NCc2cc3ccc(OC)cc3n(CC(=O)Nc3c(C)cc(C)cc3C)c2=O)cc1,inactive: -1.2%
16,CCN(CC)C(C)CN1c2ccccc2Sc2ccccc21 (configuration not stated),inactive: -1.11%
17,CCCNC(=O)NS(=O)(=O)c1ccc(Cl)cc1,inactive: -0.252%
18,CC(C)Oc1ccc(C(=O)N(Cc2ccc(N(C)C)cc2)C2CCS(=O)(=O)C2)cc1 (configuration not stated),inactive: -7.97%
19,COc1ccc(Cl)cc1NC(=O)Cn1ccn(-c2cc(C)cc(C)c2)c(=O)c1=O,inactive: -19.7%
20,Cn1nnc2c(N3CCN(c4ccc(F)cc4)CC3)ncnc21,inactive: 9.2%
21,Cc1ccccc1CNC(=O)CCS(=O)(=O)c1cc2c3c(c1)CCN3C(=O)CC2,inactive: 0.251%
22,CCOc1cccc(CNC(=O)c2ccc(N3CCCC3)c(NC(=O)NCc3ccccc3)c2)c1,inactive: -9.94%
23,Cc1ccc(N2CCN(C(=O)c3cc4cc5ccc(C)cc5nc4s3)CC2C)cc1 (configuration not stated),inactive: 5.3%
